Test results published in patent US5780265A, “Kunitz type plasma kallikrein inhibitors” (Genentech, Inc., priority 1995, dated 1998).
Not every detail of the peptide structures is certain; ends, links or a residue may be inferred. Bridges are numbered along the chain shown (N, C = ends). Where no end group is shown, it is not given here.

Key:
Assay type in all cases: biochemical
[1] = target: T1, thrombin (Homo sapiens, UniProt P00734); test: Specificity assay, thrombin; conditions: 100 nM inhibitor; thrombin 6.2 nM, 0.7 mM S2366
T1 construct: purchased Haematologic Technologies Inc. (Essex Jct., Vt.)

[2] = target: T2, Factor XIa (Homo sapiens, UniProt P03951); test: Specificity assay, Factor XIa; conditions: 100 nM inhibitor; FXIa […], 0.7 mM S2366, 1 mg/mL BSA
T2 construct: purchased Haematologic Technologies Inc. (Essex Jct., Vt.)

[3] = target: T3, Factor XIIa (Homo sapiens, UniProt P00748); test: Specificity assay, Factor XIIa; conditions: 100 nM inhibitor; 0.7 mM S2302
T3 construct: purchased Enzyme Research Laboratories, Inc. (South Bend, Ind.)
T3 sequence (P00748 373-615 limits assumed): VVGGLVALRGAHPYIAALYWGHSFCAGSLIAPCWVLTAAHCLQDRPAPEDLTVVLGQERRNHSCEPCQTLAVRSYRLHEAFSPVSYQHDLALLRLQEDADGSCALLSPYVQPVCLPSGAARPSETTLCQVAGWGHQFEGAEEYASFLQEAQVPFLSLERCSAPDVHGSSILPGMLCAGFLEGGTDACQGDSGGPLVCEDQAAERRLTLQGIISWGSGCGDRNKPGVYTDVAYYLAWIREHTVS
T3 sequence (P00748 20-372 limits assumed): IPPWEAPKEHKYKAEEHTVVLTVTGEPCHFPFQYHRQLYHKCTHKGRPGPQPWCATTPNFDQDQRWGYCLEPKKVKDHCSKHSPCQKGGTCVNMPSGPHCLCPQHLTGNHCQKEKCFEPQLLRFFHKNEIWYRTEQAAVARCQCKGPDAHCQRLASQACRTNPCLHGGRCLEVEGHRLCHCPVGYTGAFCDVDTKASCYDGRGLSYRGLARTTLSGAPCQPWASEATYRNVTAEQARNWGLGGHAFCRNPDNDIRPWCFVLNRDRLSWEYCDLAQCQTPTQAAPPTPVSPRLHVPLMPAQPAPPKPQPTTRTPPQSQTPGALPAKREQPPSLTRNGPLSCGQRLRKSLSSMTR

[4] = target: T4, TF-FVIIa (tissue factor-Factor VIIa) (Homo sapiens, UniProt P08709); test: Specificity assay, TF-FVIIa; conditions: 100 nM inhibitor; TF 77 nM-FVIIa 14 nM, 0.7 mM S2366
T4 construct: purchased Haematologic Technologies Inc. (FVIIa); TF made in house; host or cells: E. coli (TF 1-243)

[5] = target: T5, plasma kallikrein (Homo sapiens, UniProt P03952); test: Specificity assay, plasma kallikrein; conditions: 100 nM inhibitor; plasma kallikrein 3.5 nM, 0.7 mM S2302; 2 h room temperature
T5 construct: Human plasma kallikrein and Factor XIIa were purchased; purchased Enzyme Research Laboratories, Inc. (South Bend, Ind.)

[6] = target: T6, activated protein C (Homo sapiens, UniProt P04070); test: Specificity assay, activated protein C; conditions: 100 nM inhibitor; activated protein C 7.6 nM, 0.7 mM S2366
T6 construct: purchased Haematologic Technologies Inc. (Essex Jct., Vt.)
T6 sequence (P04070 212-461 limits assumed): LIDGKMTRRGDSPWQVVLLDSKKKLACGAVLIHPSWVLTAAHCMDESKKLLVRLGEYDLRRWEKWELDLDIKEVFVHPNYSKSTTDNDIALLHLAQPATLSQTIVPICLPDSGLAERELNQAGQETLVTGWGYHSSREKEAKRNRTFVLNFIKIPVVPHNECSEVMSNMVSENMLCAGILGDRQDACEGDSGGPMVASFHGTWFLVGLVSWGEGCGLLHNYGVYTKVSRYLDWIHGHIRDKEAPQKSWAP
T6 sequence (P04070 43-197 limits assumed): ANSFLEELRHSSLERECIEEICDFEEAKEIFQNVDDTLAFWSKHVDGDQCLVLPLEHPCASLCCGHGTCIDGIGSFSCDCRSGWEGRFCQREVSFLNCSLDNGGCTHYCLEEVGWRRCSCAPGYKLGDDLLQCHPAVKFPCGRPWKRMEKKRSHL

T2 sequence (P03951 388-625 limits assumed): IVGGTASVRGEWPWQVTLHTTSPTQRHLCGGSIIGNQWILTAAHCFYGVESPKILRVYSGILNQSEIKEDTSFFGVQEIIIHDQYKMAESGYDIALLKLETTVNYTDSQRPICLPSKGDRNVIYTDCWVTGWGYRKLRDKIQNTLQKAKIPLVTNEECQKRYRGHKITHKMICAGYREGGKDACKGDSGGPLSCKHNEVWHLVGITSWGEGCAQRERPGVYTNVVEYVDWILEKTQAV
T2 sequence (P03951 19-387 limits assumed): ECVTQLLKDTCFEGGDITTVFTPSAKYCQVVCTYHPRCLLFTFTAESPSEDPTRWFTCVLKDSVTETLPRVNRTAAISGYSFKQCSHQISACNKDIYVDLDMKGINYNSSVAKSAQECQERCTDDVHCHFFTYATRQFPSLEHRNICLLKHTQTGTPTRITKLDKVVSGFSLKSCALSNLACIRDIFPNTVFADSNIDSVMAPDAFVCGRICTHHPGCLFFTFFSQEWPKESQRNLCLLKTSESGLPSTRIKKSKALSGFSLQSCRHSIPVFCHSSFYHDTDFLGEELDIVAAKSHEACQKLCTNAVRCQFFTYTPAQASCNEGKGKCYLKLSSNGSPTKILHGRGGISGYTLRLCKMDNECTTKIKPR
T4 sequence (P08709 213-466 limits assumed): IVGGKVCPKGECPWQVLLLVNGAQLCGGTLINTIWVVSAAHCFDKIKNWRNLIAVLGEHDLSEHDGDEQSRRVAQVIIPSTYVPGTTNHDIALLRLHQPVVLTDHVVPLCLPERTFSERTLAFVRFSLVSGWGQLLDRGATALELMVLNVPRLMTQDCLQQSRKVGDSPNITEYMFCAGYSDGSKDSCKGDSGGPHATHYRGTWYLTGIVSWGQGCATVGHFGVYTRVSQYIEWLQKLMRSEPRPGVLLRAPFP
T4 sequence (P08709 61-212 limits assumed): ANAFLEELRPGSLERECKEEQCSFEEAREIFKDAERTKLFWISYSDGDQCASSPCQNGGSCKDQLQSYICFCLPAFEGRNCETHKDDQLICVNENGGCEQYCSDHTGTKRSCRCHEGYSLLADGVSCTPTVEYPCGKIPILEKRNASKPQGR
T4 sequence (P13726 33-275 partner limits assumed): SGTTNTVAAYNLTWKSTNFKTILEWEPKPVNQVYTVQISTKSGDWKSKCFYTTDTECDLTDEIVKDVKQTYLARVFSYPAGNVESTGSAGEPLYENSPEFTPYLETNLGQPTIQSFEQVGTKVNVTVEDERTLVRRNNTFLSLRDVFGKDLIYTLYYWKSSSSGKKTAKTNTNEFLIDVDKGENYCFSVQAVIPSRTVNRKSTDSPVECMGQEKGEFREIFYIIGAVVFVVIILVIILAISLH
T5 sequence (P03952 391-638 limits assumed): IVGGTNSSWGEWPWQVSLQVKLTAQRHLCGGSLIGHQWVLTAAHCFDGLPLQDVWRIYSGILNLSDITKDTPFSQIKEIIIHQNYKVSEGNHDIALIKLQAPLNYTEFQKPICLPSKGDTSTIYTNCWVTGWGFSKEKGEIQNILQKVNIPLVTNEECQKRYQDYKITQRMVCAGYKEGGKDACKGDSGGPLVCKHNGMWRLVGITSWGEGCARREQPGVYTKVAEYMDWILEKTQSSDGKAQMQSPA
T5 sequence (P03952 20-390 limits assumed): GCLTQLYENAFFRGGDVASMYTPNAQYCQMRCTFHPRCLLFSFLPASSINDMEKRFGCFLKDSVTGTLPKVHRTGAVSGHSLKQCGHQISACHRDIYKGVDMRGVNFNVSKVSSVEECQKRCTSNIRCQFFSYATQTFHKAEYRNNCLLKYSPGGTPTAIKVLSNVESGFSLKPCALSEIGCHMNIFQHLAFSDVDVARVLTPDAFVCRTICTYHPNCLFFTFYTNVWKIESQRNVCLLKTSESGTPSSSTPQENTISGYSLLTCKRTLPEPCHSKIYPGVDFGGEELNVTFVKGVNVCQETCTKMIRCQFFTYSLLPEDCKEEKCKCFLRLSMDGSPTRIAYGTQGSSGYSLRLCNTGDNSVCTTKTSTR

Sequence | fraction of remaining proteolytic activity, thrombin [1] | fraction of remaining proteolytic activity, Factor XIa [2] | fraction of remaining proteolytic activity, Factor XIIa [3] | fraction of remaining proteolytic activity, TF · Factor VIIa [4] | fraction of remaining proteolytic activity, plasma kallikrein [5] | fraction of remaining proteolytic activity, activated protein C [6]
VREVCSEQAEDGHCRAAHPRWYFDVTEGKCAPFVYGGCGGNRNNFDTEEYCAAVCGSA (disulfide 5-55, 14-38, 30-51) [KALI-DV] | 0.89 | 0.00 | 1.02 | 0.79 | 0.00 | 0.85
VREVCSEQAEPGHCRAAHPRWYFDVTEGKCAPFVYGGCGGNRNNFDTEEYCAAVCGSA (disulfide 5-55, 14-38, 30-51) [KALI-PV] | 0.92 | 0.07 | 1.04 | 0.83 | 0.00 | 0.80
VREVCSEQAEEGHCRAAHPRWYFDVTEGKCAPFYYGGCGGNRNNFDTEEYCAAVCGSA (disulfide 5-55, 14-38, 30-51) [KALI-EY] | 1.00 | 0.02 | 0.99 | – | 0.00 | –
VREVCSEQAEPGHCRAAHPRWYFDVTEGKCAPFYYGGCGGNRNNFDTEEYCAAVCGSA (disulfide 5-55, 14-38, 30-51) [KALI-PY] | 0.98 | 0.13 | 1.02 | 0.94 | 0.00 | 0.91
VREVCSEQAEDGHCRAAHPRWYFDVTEGKCAPFFYGGCGGNRNNFDTEEYCAAVCGSA (disulfide 5-55, 14-38, 30-51) [KALI-D] | 0.88 | 0.02 | – | 0.91 | 0.00 | 0.68
VREVCSEQAEPGHCRAAHPRWYFDVTEGKCAPFFYGGCGGNRNNFDTEEYCAAVCGSA (disulfide 5-55, 14-38, 30-51) [KALI-P] | 0.85 | 0.12 | 1.02 | 0.93 | 0.00 | 0.52
